# Reference: the BET-seq Pho4 binding data (Le et al. 2018)
# This is one part of the list. The energies were worked out here from pooled read counts, against the library average; single values are noisy.
# Target: T1, Pho4 (S. cerevisiae) (UniProt P07270)
# T1 sequence: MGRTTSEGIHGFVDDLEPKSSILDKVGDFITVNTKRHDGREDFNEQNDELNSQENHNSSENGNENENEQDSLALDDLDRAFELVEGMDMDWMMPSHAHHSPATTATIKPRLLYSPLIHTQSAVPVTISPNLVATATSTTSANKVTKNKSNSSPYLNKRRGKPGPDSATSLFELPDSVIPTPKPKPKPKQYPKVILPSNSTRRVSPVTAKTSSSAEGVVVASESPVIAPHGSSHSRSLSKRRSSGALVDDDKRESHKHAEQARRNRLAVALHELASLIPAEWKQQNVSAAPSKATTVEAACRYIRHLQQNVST
# Assay: relative binding free energy (BET-seq); higher = weaker binding
# Details: reference: library average
row,Sequence,relative binding free energy [kcal/mol]
1,TGATGCACGTGGGGCT,-0.12
2,GCTGACACGTGGTAGT,0.02
3,TGTGACACGTGAGTTG,0.08
4,CTGTTCACGTGAGTGA,0.21
5,TAGGGCACGTGTTGGG,-0.04
6,TGGCGCACGTGGAGGT,-0.06
7,ATTTGCACGTGTACTA,0.05
8,GTAAGCACGTGTAAGG,0.09
9,GTTAACACGTGAGGTG,0.46
10,GGTGGCACGTGCATGA,-0.02
11,AGTGGCACGTGAAAGA,0.12
12,AGTGTCACGTGAGAGT,0.17
13,TAGAACACGTGGATAT,0.26
14,GGGCTCACGTGTTTCT,0.42
15,GTATGCACGTGATGTT,0.18
16,TTCTGCACGTGAGATT,0.3
17,CAGGGCACGTGGGTGG,-0.28
18,ATGGGCACGTGTTATG,-0.14
19,TTTATCACGTGTGCGA,0.15
20,TTTGCCACGTGGTAAT,-0.11
21,GGTTCCACGTGGGTCG,-0.04
22,ATTTACACGTGGATCT,0.21
23,TTAGACACGTGGTAGA,0.05
24,GGTCTCACGTGTGACT,0.46
25,TGCCTCACGTGTTTTT,0.21
26,TGGGACACGTGGGTCG,-0.15

row,Sequence,relative binding free energy [kcal/mol]
1,ATGGGCACGTGCTGAG,-0.22
2,TTTAGCACGTGGCGCA,-0.18
3,TTCAACACGTGTAGGG,-0.09
4,TGGTTCACGTGACGTC,0.35
5,TGGTCCACGTGATTTT,0.19
6,TGGAGCACGTGTCAAG,-0.11
7,TTTTCCACGTGTGTCG,0.08
8,GTGGTCACGTGTCATA,0.04
9,GTCATCACGTGGGCGT,0.01
10,GTCGACACGTGGGCGT,-0.1
11,GGAGTCACGTGTGGAA,0.14
12,GGACACACGTGGGGGG,-0.2
13,GGATTCACGTGCGGAG,0.19
14,GTTTCCACGTGGGTAA,0.08
15,TAATTCACGTGGCAGT,0.14
16,GGTTCCACGTGGTGGT,0.05
17,GAGTGCACGTGTGGGA,0.13
18,TGGGACACGTGGTCTA,-0.07
19,ACGGTCACGTGGAGGA,0.21
20,TAAAGCACGTGGTGTG,-0.24
21,CACGTCACGTGGTGGG,-0.05
22,GGAAGCACGTGTGATT,-0.03
23,TGGGCCACGTGCTAGT,-0.15
24,TAAGGCACGTGATTGG,-0.1
25,TATTACACGTGAAGTA,0.3
26,GTTCTCACGTGGTAAT,0.16

row,Sequence,relative binding free energy [kcal/mol]
1,TGGTACACGTGGGTAA,-0.09
2,CGCGTCACGTGCTGGT,0.06
3,TTACTCACGTGGGTGA,0.21
4,TTGGTCACGTGCCAGG,0.04
5,ATGGACACGTGATTAT,0.19
6,ACGATCACGTGGGGTT,0.09
7,GGGGGCACGTGTTTTT,0.05
8,AATGTCACGTGTGAGG,0.09
9,GCAGGCACGTGGTGCG,-0.24
10,TTGGTCACGTGTGCTA,0.07
11,AAGGACACGTGGGGGC,-0.09
12,TGGGGCACGTGTAGCG,-0.08
13,GTATACACGTGGATTA,0.15
14,AACATCACGTGGTGGG,0.13
15,TTTAACACGTGATTCG,0.33
16,AATCTCACGTGTGTGA,0.21
17,TGGAGCACGTGCAGGT,-0.21
18,TGGCTCACGTGGGTCA,0.05
19,AGGGGCACGTGTTTTG,-0.06
20,GGCGGCACGTGGGGTT,-0.14
21,TCATGCACGTGTGTGA,-0.05
22,TAGAGCACGTGGGTCG,-0.3
23,AAGTACACGTGGATTT,0.26
24,ATGCTCACGTGGGGCT,-0.03
25,CTTGGCACGTGACAGT,-0.03
26,TTTAGCACGTGACGGT,0.1

row,Sequence,relative binding free energy [kcal/mol]
1,GTTTCCACGTGGCTTT,0.11
2,AGGTGCACGTGAGTCG,0.26
3,TGTGGCACGTGCGTAT,-0.03
4,TGAGTCACGTGCTGTT,0.06
5,ATTGTCACGTGAAAAT,0.24
6,TCTTTCACGTGTCGTG,0.27
7,ATTTGCACGTGTTTAT,-0.05
8,GGGGGCACGTGCCGTT,-0.28
9,TGTCACACGTGGCGGG,-0.05
10,ACGCGCACGTGGGTGT,-0.41
11,CGTTCCACGTGTTTGG,0.15
12,TGAGGCACGTGGATGG,-0.08
13,GGAGGCACGTGAGGGA,0.24
14,TGGAACACGTGTGGAT,0.2
15,TGGTGCACGTGAGAGA,0.16
16,GGCTACACGTGGGGTA,-0.09
17,TATTACACGTGTGATA,0.35
18,CGCAGCACGTGGGTTG,-0.28
19,ACTAGCACGTGTTGTA,-0.06
20,ATGCTCACGTGGGTAG,0.05
21,AGATGCACGTGAGTGG,0.04
22,CGCGTCACGTGGGTGG,-0.07
23,GGGTGCACGTGAGACT,0.05
24,TGGTCCACGTGGACTT,0.13
25,GCTTGCACGTGGCGTG,-0.09
26,AGGGGCACGTGCCTGG,-0.25

row,Sequence,relative binding free energy [kcal/mol]
1,GCGGACACGTGGAGGG,0.1
2,ATATGCACGTGGGTCA,-0.32
3,CAGGGCACGTGGGGAA,-0.27
4,ATAGGCACGTGTCTTG,-0.2
5,ATATGCACGTGCTGGG,-0.15
6,GGATCCACGTGCGGGT,-0.04
7,TTATGCACGTGGGCTG,-0.18
8,TGAGACACGTGTGTTA,0
9,GGGGTCACGTGAACGG,0.37
10,GTGAGCACGTGAAGGT,0.27
11,TGTGTCACGTGTTCTT,0.05
12,TATGACACGTGGGTTT,-0.08
13,TAAAGCACGTGTTGGG,-0.17
14,GGTCGCACGTGATGTT,0.05
15,GTTTTCACGTGAGTCC,0.43
16,GGTACCACGTGGGGTA,-0.25
17,TGCGTCACGTGGTCTT,-0.04
18,GCGTGCACGTGGGGAC,-0.17
19,GTGTCCACGTGGCTTT,0.01
20,TTGGTCACGTGCGTCT,-0.02
21,TATCGCACGTGGGGGC,-0.1
22,AGTATCACGTGTGGAG,0.03
23,GGAAGCACGTGCGGAG,-0.2
24,GGTTACACGTGGCTGT,0.1
25,GGTGCCACGTGCGTGG,-0.05
26,AGTGGCACGTGGTGTC,-0.15

row,Sequence,relative binding free energy [kcal/mol]
1,TGGGGCACGTGTAGAG,0.03
2,TGAGACACGTGGGGTA,-0.08
3,GTATTCACGTGGAGGC,0.31
4,AGGTTCACGTGTTTAA,0.26
5,TTTTCCACGTGTTACG,0.2
6,TTTTCCACGTGCTGGG,-0.04
7,AAGGTCACGTGGTGGG,0.16
8,TGTTACACGTGGGCGT,0
9,GTGACCACGTGGGGTG,-0.15
10,GATCACACGTGTGGAG,0.24
11,CTGGGCACGTGTTTAA,-0.14
12,TAAGACACGTGTATTG,-0.07
13,GTTACCACGTGAGGTT,0.15
14,GTTTGCACGTGAGCTA,0.3
15,CCATGCACGTGGTGGG,-0.23
16,ATTTCCACGTGATTGG,0.12
17,AGTTGCACGTGTAACG,0.04
18,CGGGGCACGTGGCATA,-0.22
19,ATTAGCACGTGTATAT,0.03
20,AATAGCACGTGTGGTA,-0.14
21,TATGACACGTGGAATG,0.07
22,TTTGACACGTGTAACT,0.1
23,GCGTGCACGTGTTATA,0
24,AATGGCACGTGTCTGT,-0.04
25,ATTATCACGTGGGGTT,0
26,GATTGCACGTGGGAGC,0.19

row,Sequence,relative binding free energy [kcal/mol]
1,GGGATCACGTGAGAGG,0.4
2,GGGTACACGTGGGAGG,0
3,GGTCTCACGTGGGTAA,0.14
4,GAGTACACGTGCGTGT,-0.08
5,TAGAGCACGTGCTGGG,-0.13
6,GGATGCACGTGACGGG,0.19
7,TCGATCACGTGGTGTG,0.13
8,GTGCTCACGTGTGGAA,0.27
9,AGGGACACGTGCGGTA,-0.08
10,TAGAACACGTGGAAGT,0.24
11,TAGTTCACGTGTGCCT,0.28
12,ACAGTCACGTGATGGT,0.15
13,GAGTCCACGTGTGGTA,0.06
14,ATGTCCACGTGAGGCG,0.31
15,TAATTCACGTGAAATG,0.31
16,GGTTACACGTGTCTTA,0.2
17,AGGATCACGTGGATGA,0.17
18,AGGTTCACGTGGAGTC,0.28
19,AGTTTCACGTGAGACG,0.3
20,GTTAGCACGTGGAGAG,-0.04
21,GTCATCACGTGAGTGT,0.22
22,CGGTGCACGTGTGGTA,-0.1
23,CTTTTCACGTGGAATT,0.35
24,TTATACACGTGATTGC,0.2
25,GGAAGCACGTGGATTT,-0.07
26,GGGAACACGTGTATAT,0.17

row,Sequence,relative binding free energy [kcal/mol]
1,GTGAGCACGTGTAATG,0.11
2,TCTTCCACGTGTGGTG,0.22
3,AAGGTCACGTGAGGTC,0.22
4,AGGGCCACGTGGGGGT,-0.24
5,TGGATCACGTGGGGAG,-0.05
6,TGTTACACGTGTTAGT,0.11
7,GGTGCCACGTGAGGGT,0.16
8,GAGATCACGTGTGAGT,0.33
9,TGTGTCACGTGGGTGA,0.03
10,ATATTCACGTGATGTA,0.03
11,TTATGCACGTGGGCCG,-0.23
12,AGGAGCACGTGGCTTG,-0.14
13,TTGGGCACGTGGTATG,-0.17
14,TGTAGCACGTGTCAGT,-0.06
15,AAGTGCACGTGGGATT,-0.16
16,CGGTGCACGTGAGTGG,0.12
17,AAATCCACGTGAGTTG,0.42
18,TAGGACACGTGGTATT,-0.02
19,GGTTTCACGTGTGTAG,0.26
20,TTTGGCACGTGTGGTT,-0.02
21,ATTGACACGTGTTGGA,-0.02
22,GGTTACACGTGGGTGG,0.04
23,TTTGGCACGTGTCGCG,0
24,ATAGACACGTGAGTTT,0.33
25,GTTGGCACGTGTTGCA,-0.11
26,CAAGTCACGTGGGAGA,0.09

row,Sequence,relative binding free energy [kcal/mol]
1,ACGTGCACGTGGAGGG,-0.08
2,TTATGCACGTGGTTGG,-0.05
3,AAATTCACGTGATGGG,0.43
4,GTAGGCACGTGAAATT,0.2
5,GTAGACACGTGGGGCG,-0.06
6,TGTTCCACGTGTGAAT,0.08
7,ATTGGCACGTGTGGTT,-0.09
8,TGGGTCACGTGGCGCT,0.05
9,GAGGTCACGTGGACTT,0.29
10,TATGACACGTGCTATG,0.01
11,TTAGACACGTGTGTGA,-0.01
12,TTTAGCACGTGGGTGG,-0.23
13,GCATGCACGTGGGTAT,-0.2
14,GTGGGCACGTGGACGC,0.05
15,TGATCCACGTGCTGGT,0.12
16,AGTTTCACGTGTTTTC,0.21
17,GGTAACACGTGATTTT,0.33
18,TACTTCACGTGTGGAG,0.3
19,GAAGTCACGTGTTTCG,0.19
20,GGTATCACGTGGACGG,0.25
21,GGACTCACGTGGGGGG,0.12
22,GGCGACACGTGAGGGT,0.22
